Experimental data as given in the supplement of paper PMC3334620.
Whole data set: some 33,000 sequences, median “E-score (-0.5 to 0.5)” near -0.032, cut for the highest 2% near 0.36. This is one part of the list.

Molecular target: T1, Sko1 (UniProt Q02100)
T1 sequence: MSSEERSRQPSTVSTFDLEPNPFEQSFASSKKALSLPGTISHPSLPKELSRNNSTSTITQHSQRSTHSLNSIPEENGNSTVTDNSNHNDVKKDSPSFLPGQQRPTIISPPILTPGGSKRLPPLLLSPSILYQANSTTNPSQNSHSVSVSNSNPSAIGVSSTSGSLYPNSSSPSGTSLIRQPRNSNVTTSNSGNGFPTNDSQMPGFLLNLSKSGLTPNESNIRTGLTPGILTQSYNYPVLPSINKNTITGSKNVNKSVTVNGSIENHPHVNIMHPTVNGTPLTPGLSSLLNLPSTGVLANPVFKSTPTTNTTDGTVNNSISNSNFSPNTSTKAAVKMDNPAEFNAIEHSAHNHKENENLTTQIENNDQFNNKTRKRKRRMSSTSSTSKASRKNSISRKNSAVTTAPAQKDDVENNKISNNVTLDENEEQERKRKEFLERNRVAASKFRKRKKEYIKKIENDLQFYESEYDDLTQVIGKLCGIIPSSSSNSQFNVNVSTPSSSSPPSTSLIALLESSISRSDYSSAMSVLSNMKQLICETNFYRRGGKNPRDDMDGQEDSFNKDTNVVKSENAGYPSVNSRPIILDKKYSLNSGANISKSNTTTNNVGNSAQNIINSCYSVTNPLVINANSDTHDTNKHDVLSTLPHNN
Assay: PBM E-score (8-mer binding enrichment) (E-score (-0.5 to 0.5)); higher = stronger / more preferred TF binding; most listed sequences are background and not binding sites
Conditions: protein concentration: 200 nM; construct: GST-full length
Method in brief: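 The E-score, a modified Wilcoxon-Mann-Whitney statistic, was computed by the Universal PBM Analysis Suite for every ungapped eight-base word pooled with its reverse complement. Scans behind it were normalised with masliner after bound GST-tagged yeast transcription factors were detected with fluorescent anti-GST. The proteins, at about 100-200 nM, had been applied to universal all-10-mer Agilent arrays made double-stranded by primer extension.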

Compared with GCATTCGC, AGCCAGCA is lower in “PBM E-score” value: -0.0755 for the first, -0.425 for the second.

First: TGAGTCAA
Second: CTACTTTA
The “PBM E-score” value of the first is lower: 0.11 for the first, 0.111 for the second.

Going from CTCGTGTC to AACGGTAC, the “PBM E-score” value rises from -0.126 to 0.0834.

Going from GCCTCAGC to AATTATGC, the “PBM E-score” value rises from -0.2 to 0.231.

First: GAGCAGTA
Second: CCGCCCGG
The “PBM E-score” value of the first is higher: -0.111 for the first, -0.122 for the second.

Compared with CATCTATA, CTCTGAAA is lower in “PBM E-score” value: 0.0404 for the first, -0.0969 for the second.

First: ATTAAGCC
Second: AGCGACCA
The “PBM E-score” value of the first is lower: -0.0361 for the first, -0.0164 for the second.

Going from ACTAGGAA to CGTTAGTC, the “PBM E-score” value falls from -0.0606 to -0.0638.

Compared with ATCTCCCG, CGGACGTA is higher in “PBM E-score” value: -0.14 for the first, 0.353 for the second.

First: AATTAGGT
Second: CCGCCGAC
The “PBM E-score” value of the first is higher: 0.26 for the first, -0.117 for the second.

Compared with GCAAATGC, ATCGAATC is higher in “PBM E-score” value: -0.00289 for the first, 0.103 for the second.

Compared with ATGGCTAA, ATAGCTAA is lower in “PBM E-score” value: -0.0608 for the first, -0.0626 for the second.

Going from AAACGCGG to GTTCACGA, the “PBM E-score” value rises from -0.00101 to 0.166.

Compared with AAGATTCT, GGATGTAC is higher in “PBM E-score” value: -0.132 for the first, -0.0326 for the second.

First: CAGTTCTA
Second: CTCTACAG
The “PBM E-score” value of the first is higher: -0.106 for the first, -0.107 for the second.

Going from CATCCTCA to AATTTAAG, the “PBM E-score” value rises from -0.111 to 0.157.

First: AATTCCAG
Second: CAGTGATA
The “PBM E-score” value of the first is higher: 0.0652 for the first, 0.0608 for the second.

Compared with ACATGTCC, AAAAGCTT is higher in “PBM E-score” value: -0.093 for the first, 0.0189 for the second.

First: CAGTACAA
Second: GTACGGGA
The “PBM E-score” value of the first is lower: -0.202 for the first, -0.0354 for the second.

Compared with AATCTCAC, ATTTCAAG is higher in “PBM E-score” value: -0.0325 for the first, 0.151 for the second.

Compared with CCATTGGG, GGCAGTAC is higher in “PBM E-score” value: -0.25 for the first, -0.122 for the second.

First: GTATACAA
Second: GCGCATCC
The “PBM E-score” value of the first is higher: 0.189 for the first, -0.111 for the second.

First: AAGAGAGA
Second: GCCGGTAC
The “PBM E-score” value of the first is lower: -0.0372 for the first, -0.00848 for the second.

Going from AATGGGTG to ATCTATGG, the “PBM E-score” value falls from -0.0853 to -0.199.

First: ATACTTGG
Second: GGGGAGTA
The “PBM E-score” value of the first is lower: -0.177 for the first, -0.124 for the second.

Going from GTGTCAAA to AAAGGCCG, the “PBM E-score” value falls from 0.0559 to -0.244.

Going from ACGAGACA to AAAACCAA, the “PBM E-score” value falls from 0.00349 to -0.0994.

First: ATTCACTC
Second: ACTGTTCT
The “PBM E-score” value of the first is lower: -0.105 for the first, -0.0556 for the second.

Compared with ATCAGTCG, CATTAACC is higher in “PBM E-score” value: 0.0446 for the first, 0.12 for the second.

First: CCTACGTC
Second: ATGAATTA
The “PBM E-score” value of the first is higher: 0.427 for the first, 0.181 for the second.

First: CATTCCCG
Second: GAATACAA
The “PBM E-score” value of the first is higher: -0.0409 for the first, -0.044 for the second.

Going from AGCGAAAT to GCGAAAGA, the “PBM E-score” value falls from 0.0712 to -0.114.

First: CGTTGCGC
Second: GACAAAAA
The “PBM E-score” value of the first is lower: 0.0912 for the first, 0.232 for the second.

First: ATCGGGGG
Second: CGAAGGTC
The “PBM E-score” value of the first is lower: -0.343 for the first, -0.288 for the second.

Compared with ATTGGCTC, ACGCCCTC is lower in “PBM E-score” value: -0.108 for the first, -0.134 for the second.

First: GACGACCA
Second: AATCAGCA
The “PBM E-score” value of the first is higher: 0.0911 for the first, 0.0708 for the second.

Compared with ACAACATA, AGGAAACA is lower in “PBM E-score” value: 0.179 for the first, -0.00892 for the second.

First: AATTCGCG
Second: AGGATAAA
The “PBM E-score” value of the first is higher: 0.162 for the first, 0.0612 for the second.

Compared with ACCAACGC, CTGATGGC is higher in “PBM E-score” value: -0.133 for the first, -0.0166 for the second.

First: GTATTCTA
Second: ATTGTTAG
The “PBM E-score” value of the first is higher: 0.205 for the first, 0.0985 for the second.

Going from TAGCTCGA to AATTTGTA, the “PBM E-score” value rises from -0.192 to 0.0973.

Compared with CCTTCTGC, ACCTGCGA is higher in “PBM E-score” value: -0.281 for the first, -0.246 for the second.

First: AACTAACT
Second: ATAGTTCC
The “PBM E-score” value of the first is higher: 0.0332 for the first, -0.0904 for the second.

Going from GCCGGTAA to CATCTCGA, the “PBM E-score” value falls from 0.0146 to -0.0148.

First: CCGGCCTC
Second: TCAAAAGA
The “PBM E-score” value of the first is lower: -0.284 for the first, 0.0144 for the second.

First: GCAGAACC
Second: CAAATTCG
The “PBM E-score” value of the first is lower: -0.16 for the first, 0.0823 for the second.

Compared with CCATCACG, AGACTTGG is lower in “PBM E-score” value: 0.222 for the first, -0.272 for the second.

First: GTAGTGCA
Second: ACACGACC
The “PBM E-score” value of the first is higher: 0.0951 for the first, -0.0213 for the second.

Compared with GAACTGTA, CTGTCAAC is higher in “PBM E-score” value: -0.0392 for the first, -0.00385 for the second.

First: CTGCTCAC
Second: CAAATAGG
The “PBM E-score” value of the first is higher: -0.0455 for the first, -0.145 for the second.

Compared with GGCATCAA, CAGTTTAG is lower in “PBM E-score” value: -0.0189 for the first, -0.0712 for the second.

Going from CGGGATGA to CAAACCTC, the “PBM E-score” value falls from -0.00457 to -0.268.

First: CGTCCTGA
Second: CCCTCGTC
The “PBM E-score” value of the first is lower: -0.0683 for the first, -0.0567 for the second.

First: CTCAAAAC
Second: ATAAGTGC
The “PBM E-score” value of the first is higher: 0.0712 for the first, -0.0835 for the second.

Going from GAATCTTA to CAAAACCA, the “PBM E-score” value falls from 0.151 to 0.042.

Compared with GTCTCAAA, GATTCACA is higher in “PBM E-score” value: -0.0308 for the first, -0.00555 for the second.

Compared with AAAACCTG, GTAGGGAA is higher in “PBM E-score” value: -0.0505 for the first, 0.0485 for the second.

Compared with GTGGCTGA, ACAGCTTC is higher in “PBM E-score” value: -0.163 for the first, -0.00448 for the second.

Compared with GTCTTACA, CAAACACC is lower in “PBM E-score” value: 0.131 for the first, -0.0368 for the second.

First: ATTCCGGC
Second: CAATCTGC
The “PBM E-score” value of the first is lower: -0.233 for the first, 0.0715 for the second.

Compared with CAGCGTCC, GATGAGTA is higher in “PBM E-score” value: -0.0679 for the first, 0.185 for the second.

First: CTCTAAGA
Second: GACTCAAA
The “PBM E-score” value of the first is lower: -0.132 for the first, 0.0131 for the second.

First: CCACTTAG
Second: CCTGCCCC
The “PBM E-score” value of the first is higher: -0.156 for the first, -0.321 for the second.

Compared with AACGCTCA, CTATTATC is higher in “PBM E-score” value: -0.0197 for the first, 0.176 for the second.

Going from AGTCCATC to TATCGGAA, the “PBM E-score” value rises from -0.178 to -0.0384.

Compared with AATCCCAG, CTAGCGAC is higher in “PBM E-score” value: -0.126 for the first, -0.0684 for the second.

Going from GTCGCTTA to GTGCCCTA, the “PBM E-score” value falls from -0.0835 to -0.19.

Going from CGTCGCGA to AACATGAC, the “PBM E-score” value rises from 0.118 to 0.255.

Compared with ACCTGGCT, TCGGCTCA is higher in “PBM E-score” value: -0.232 for the first, -0.111 for the second.

Going from GAGTACGA to GCCATGGA, the “PBM E-score” value falls from 0.0447 to -0.11.

Compared with GCAGTATA, AGACTGAT is higher in “PBM E-score” value: -0.139 for the first, -0.0788 for the second.

First: GGTCGGTA
Second: CGGGGGCC
The “PBM E-score” value of the first is higher: -0.153 for the first, -0.388 for the second.

Compared with CACTCTGC, GTCCGTGA is lower in “PBM E-score” value: 0.0367 for the first, 0.0146 for the second.

Going from CGTCAAGC to CAAGAAGG, the “PBM E-score” value falls from 0.191 to -0.0459.

Compared with AATGTTCA, GTGGACCA is lower in “PBM E-score” value: 0.0405 for the first, -0.196 for the second.

First: GATTGCCC
Second: CGTTTGTC
The “PBM E-score” value of the first is lower: -0.125 for the first, 0.199 for the second.

First: ACTGCTTC
Second: CTAACCAC
The “PBM E-score” value of the first is lower: -0.104 for the first, 5e-05 for the second.

Compared with AGGACTAG, GATGCACC is lower in “PBM E-score” value: -0.0388 for the first, -0.14 for the second.

Compared with TTCAAGAA, CCGAATGC is lower in “PBM E-score” value: 0.16 for the first, -0.0903 for the second.

Compared with TCCTAGCA, GGTTGTAA is higher in “PBM E-score” value: -0.208 for the first, -0.0192 for the second.

Compared with CGGGCCGA, GCGGGGAA is higher in “PBM E-score” value: -0.282 for the first, -0.201 for the second.

Going from CCTTCCCG to GAAGGCCC, the “PBM E-score” value falls from -0.222 to -0.345.

First: CTGCCAAG
Second: AGAAAAAG
The “PBM E-score” value of the first is higher: -0.0254 for the first, -0.145 for the second.

Going from AGTCAGGA to AGGGAAGC, the “PBM E-score” value falls from -0.0146 to -0.31.

First: TCGAGAAA
Second: ACATAGCA
The “PBM E-score” value of the first is higher: 0.145 for the first, 0.0837 for the second.

Compared with TAGGAATA, CTATTTAA is lower in “PBM E-score” value: -0.0238 for the first, -0.0906 for the second.
